The target of this experiment is his6-TDP1 (human tyrosyl-DNA phosphodiesterase, wild type) (human, UniProt Q9NUW8). The experiment in a line: pull-down.

B1: MBP-XLF-K293A (natural protein)
chain: not shown
B1: the binding result was “binds”.

These data come from publication PMC4673895 (DNA repair, 2015).
